Data on one molecule can be found in patent publication US9869668B2, “PDGF as a biomarker for predicting resistance or effect of c-Met targeting drugs” (SAMSUNG ELECTRONICS CO., LTD., priority 2014, dated 2018).

Details in all cases: among the four affinity-matured antibodies
In one assay the test system is Akt phosphorylation. The assay is described as follows: Akt phosphorylation. In kind it is cell-based.
The target of assay [1] is T1, c-Met (Homo sapiens, UniProt P08581). As to the kind of experiment: Affinity for c-Met. In kind it is binding.
T1 sequence (P08581 25-1390): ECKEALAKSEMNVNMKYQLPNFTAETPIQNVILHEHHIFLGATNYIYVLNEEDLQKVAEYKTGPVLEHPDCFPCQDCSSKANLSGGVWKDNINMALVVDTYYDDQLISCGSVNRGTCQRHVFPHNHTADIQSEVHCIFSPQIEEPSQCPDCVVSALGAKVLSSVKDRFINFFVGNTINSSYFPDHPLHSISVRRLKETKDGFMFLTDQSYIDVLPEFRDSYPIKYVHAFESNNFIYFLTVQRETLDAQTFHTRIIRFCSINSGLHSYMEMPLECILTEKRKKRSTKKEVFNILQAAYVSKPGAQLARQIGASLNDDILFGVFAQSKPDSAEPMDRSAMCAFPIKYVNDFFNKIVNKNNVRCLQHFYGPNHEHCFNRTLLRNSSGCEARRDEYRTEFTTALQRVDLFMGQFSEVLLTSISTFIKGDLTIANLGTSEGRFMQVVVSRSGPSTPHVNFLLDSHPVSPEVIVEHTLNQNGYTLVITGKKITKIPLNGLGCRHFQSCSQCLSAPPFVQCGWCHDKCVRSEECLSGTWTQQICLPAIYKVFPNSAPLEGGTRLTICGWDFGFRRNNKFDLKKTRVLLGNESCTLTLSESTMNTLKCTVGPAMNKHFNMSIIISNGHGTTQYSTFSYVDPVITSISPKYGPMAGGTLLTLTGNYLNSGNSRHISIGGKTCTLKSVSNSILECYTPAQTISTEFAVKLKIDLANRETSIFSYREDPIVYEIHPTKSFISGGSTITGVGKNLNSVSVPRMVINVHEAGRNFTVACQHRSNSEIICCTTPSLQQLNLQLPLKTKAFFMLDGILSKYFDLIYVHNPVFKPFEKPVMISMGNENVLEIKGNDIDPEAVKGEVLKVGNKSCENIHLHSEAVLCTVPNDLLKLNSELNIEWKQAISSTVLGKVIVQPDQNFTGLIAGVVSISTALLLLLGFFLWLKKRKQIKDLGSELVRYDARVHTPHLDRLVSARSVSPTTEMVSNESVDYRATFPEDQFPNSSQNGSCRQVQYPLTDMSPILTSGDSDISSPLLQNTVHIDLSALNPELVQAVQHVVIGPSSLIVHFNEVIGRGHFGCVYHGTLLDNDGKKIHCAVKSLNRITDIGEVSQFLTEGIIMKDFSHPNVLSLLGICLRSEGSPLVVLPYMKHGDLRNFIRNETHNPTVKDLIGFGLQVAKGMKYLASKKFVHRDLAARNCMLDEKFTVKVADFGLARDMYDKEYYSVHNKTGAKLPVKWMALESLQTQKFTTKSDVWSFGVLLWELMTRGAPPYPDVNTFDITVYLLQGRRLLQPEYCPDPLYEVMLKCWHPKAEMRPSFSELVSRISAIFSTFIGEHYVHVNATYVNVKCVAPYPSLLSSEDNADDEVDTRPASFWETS
Assay [2] addresses T1, c-Met. The assay is described as follows: c-Met degradation degree. In kind it is cell-based.

B1: huAbF46-H4-A1: affinity-matured humanized anti-c-Met antibody, L3-1 origin (antibody)
heavy: EVQLVESGGGLVQPGGSLRLSCAASGFTFTDYYMSWVRQAPGKGLEWLGFIRNKANGYTTEYSASVKGRFTISRDNSKNTLYLQMNSLRAEDTAVYYCARDNWFAYWGQGTLVTVSSASTKGPSVFPLAPSSKSTSGGTAALGCLVKDYFPEPVTVSWNSGALTSGVHTFPAVLQSSGLYSLSSVVTVPSSSLGTQTYICNVNHKPSNTKVDKKVEPKSCDCH[human IgG1 Fc not given here]
light: DIQMTQSPSSLSASVGDRVTITCKSSQSLLASGNQNNYLAWHQQKPGKAPKMLIIWASTRVSGVPSRFSGSGSGTDFTLTISSLQPEDFATYYCQQSYSRPYTFGQGTKVEIKRTVAAPSVFIFPPSDEQLKSGTASVVCLLNNFYPREAKVQWKVDNALQSGNSQESVTEQDSKDSTYSLSSTLTLSKADYEKHKVYACEVTHQGLSSPVTKSFNRGEC
Take B1: the Akt phosphorylation entry in the assay on Akt phosphorylation is on record as “lowest”. Besides, in the assay with c-Met [1], the “affinity for c-Met” value is reported as “highest”. Further, in the assay with c-Met [2], the c-Met degradation degree result was “lowest”.
